{"source": "the supplement of paper PMC12217912", "parents": {"B1": {"name": "TEV protease; numbered along this chain (parent)", "chain": "MGESLFKGPRDYNPISSSICHLTNESDGHTTSLYGIGFGPFIITNKHLFRRNNGTLVVQSLHGVFKVKDTTTLQQHLVDGRDMIIIRMPKDFPPFPQKLKFREPQREERICLVTTNFQTKSMSSMVSDTSCTFPSGDGIFWKHWIQTKDGQCGSPLVSTRDGFIVGIHSASNFTNTNNYFTSVPKNFMELLTNQEAQQWVSGWRLNADSVLWGGHKVFMVKPEEPFQPVKEATQL"}}, "note": "The other results are listed elsewhere or left out. Sequences were assembled here from the parent chain. Values near 0.05 are background.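 Note: Bxb1 expression induced with 0.2% (w/v) L-rhamnose at OD600 near 0.5, cultures sampled hourly, flipped fraction per protease–substrate barcode pair counted by paired-end Illumina sequencing.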"}
{"variants_of": "B1", "test": "raw area under fraction-flipped curve 0-4 h after induction (AUC4h, not background-subtracted), DNA-recorder readout of cleavage of the substrate (dimensionless); higher = more cleavage of the substrate by the protease variant", "details": "temperature: 34 °C; time window: 0-4 h after rhamnose induction"}
{"variant": "MGESLFKGPRDYNPISSSICHLTNESDGHTTSLYGIGFGPFIITNKHLFRRNNGTLVVQSLHGVFKVKDTTTLQQHLVDGRDMIIIRMPKDNPPFPQKLKFREPQREERICLVTTNFQTKSMSSMVSDTSCTFPSGDGIFWKHWIQTKDGQCGSPLVSTRDGFIVGIHSASNFTNTNNYFTSVPKNFMELLTNQEAQQWVSGWRLNADSVLWGGHKVFMVKPEEPFQPVKEATQL", "note": "[F92N]", "area with substrate ECLYFQS": 0.114, "area with substrate EDLYFQS": 0.0605, "area with substrate EILYFQS": 0.0687, "area with substrate EPLYFQS": 0.112, "area with substrate ERLYFQS": 0.0987, "area with substrate ESLYFQS": 0.0899}
{"variant": "MGESLFKGPRDYNPISSSICHLTNESDGHTTSLYGIGFGPFIITNKHLFRRNNGTLVVQSLHGVFKVKDTTTLQQHLVDGRDMIIIRMPKDVPPFPQKLKFREPQREERICLVTTNFQTKSMSSMVSDTSCTFPSGDGIFWKHWIQTKDGQCGSPLVSTRDGFIVGIHSASNFTNTNNYFTSVPKNFMELLTNQEAQQWVSGWRLNADSVLWGGHKVFMVKPEEPFQPVKEATQL", "note": "[F92V]", "area with substrate ECLYFQS": 0.0805, "area with substrate EGLYFQS": 0.0953, "area with substrate EKLYFQS": 0.0917, "area with substrate ELLYFQS": 0.0585, "area with substrate EMLYFQS": 0.123, "area with substrate EPLYFQS": 0.117, "area with substrate EQLYFQS": 0.122, "area with substrate ERLYFQS": 0.106, "area with substrate ESLYFQS": 0.0835}
{"variant": "MGESLFKGPRDYNPISSSICHLTNESDGHTTSLYGIGFGPFIITNKHLFRRNNGTLVVQSLHGVFKVKDTTTLQQHLVDGRDMIIIRMPKDFDPFPQKLKFREPQREERICLVTTNFQTKSMSSMVSDTSCTFPSGDGIFWKHWIQTKDGQCGSPLVSTRDGFIVGIHSASNFTNTNNYFTSVPKNFMELLTNQEAQQWVSGWRLNADSVLWGGHKVFMVKPEEPFQPVKEATQL", "note": "[P93D]", "area with substrate ECLYFQS": 0.0923, "area with substrate EDLYFQS": 0.114, "area with substrate EELYFQS": 0.109, "area with substrate EFLYFQS": 0.103, "area with substrate EGLYFQS": 0.0605, "area with substrate ELLYFQS": 0.0654, "area with substrate EMLYFQS": 0.13, "area with substrate EPLYFQS": 0.111, "area with substrate ESLYFQS": 0.113, "area with substrate EWLYFQS": 0.121}
{"variant": "MGESLFKGPRDYNPISSSICHLTNESDGHTTSLYGIGFGPFIITNKHLFRRNNGTLVVQSLHGVFKVKDTTTLQQHLVDGRDMIIIRMPKDFPNFPQKLKFREPQREERICLVTTNFQTKSMSSMVSDTSCTFPSGDGIFWKHWIQTKDGQCGSPLVSTRDGFIVGIHSASNFTNTNNYFTSVPKNFMELLTNQEAQQWVSGWRLNADSVLWGGHKVFMVKPEEPFQPVKEATQL", "note": "[P94N]", "area with substrate ECLYFQS": 0.0895, "area with substrate EELYFQS": 0.125, "area with substrate EKLYFQS": 0.078, "area with substrate EVLYFQS": 0.12, "area with substrate EWLYFQS": 0.0914}
{"variant": "MGESLFKGPRDYNPISSSICHLTNESDGHTTSLYGIGFGPFIITNKHLFRRNNGTLVVQSLHGVFKVKDTTTLQQHLVDGRDMIIIRMPKDFPPFPDKLKFREPQREERICLVTTNFQTKSMSSMVSDTSCTFPSGDGIFWKHWIQTKDGQCGSPLVSTRDGFIVGIHSASNFTNTNNYFTSVPKNFMELLTNQEAQQWVSGWRLNADSVLWGGHKVFMVKPEEPFQPVKEATQL", "note": "[Q97D]", "area with substrate ECLYFQS": 0.0898, "area with substrate EDLYFQS": 0.118, "area with substrate EKLYFQS": 0.111, "area with substrate EMLYFQS": 0.112, "area with substrate EQLYFQS": 0.117, "area with substrate ESLYFQS": 0.0728, "area with substrate EWLYFQS": 0.0929}
{"variant": "MGESLFKGPRDYNPISSSICHLTNESDGHTTSLYGIGFGPFIITNKHLFRRNNGTLVVQSLHGVFKVKDTTTLQQHLVDGRDMIIIRMPKDFPPFPGKLKFREPQREERICLVTTNFQTKSMSSMVSDTSCTFPSGDGIFWKHWIQTKDGQCGSPLVSTRDGFIVGIHSASNFTNTNNYFTSVPKNFMELLTNQEAQQWVSGWRLNADSVLWGGHKVFMVKPEEPFQPVKEATQL", "note": "[Q97G]", "area with substrate ECLYFQS": 0.109, "area with substrate ESLYFQS": 0.112}
{"variant": "MGESLFKGPRDYNPISSSICHLTNESDGHTTSLYGIGFGPFIITNKHLFRRNNGTLVVQSLHGVFKVKDTTTLQQHLVDGRDMIIIRMPKDFPPFPLKLKFREPQREERICLVTTNFQTKSMSSMVSDTSCTFPSGDGIFWKHWIQTKDGQCGSPLVSTRDGFIVGIHSASNFTNTNNYFTSVPKNFMELLTNQEAQQWVSGWRLNADSVLWGGHKVFMVKPEEPFQPVKEATQL", "note": "[Q97L]", "area with substrate ECLYFQS": 0.0994, "area with substrate EILYFQS": 0.0723, "area with substrate EMLYFQS": 0.107, "area with substrate EVLYFQS": 0.103}
{"variant": "MGESLFKGPRDYNPISSSICHLTNESDGHTTSLYGIGFGPFIITNKHLFRRNNGTLVVQSLHGVFKVKDTTTLQQHLVDGRDMIIIRMPKDFPPFPTKLKFREPQREERICLVTTNFQTKSMSSMVSDTSCTFPSGDGIFWKHWIQTKDGQCGSPLVSTRDGFIVGIHSASNFTNTNNYFTSVPKNFMELLTNQEAQQWVSGWRLNADSVLWGGHKVFMVKPEEPFQPVKEATQL", "note": "[Q97T]", "area with substrate ECLYFQS": 0.102, "area with substrate EGLYFQS": 0.091, "area with substrate EILYFQS": 0.102, "area with substrate EKLYFQS": 0.105, "area with substrate ELLYFQS": 0.0856, "area with substrate EQLYFQS": 0.122, "area with substrate ESLYFQS": 0.122, "area with substrate EVLYFQS": 0.113}
{"variant": "MGESLFKGPRDYNPISSSICHLTNESDGHTTSLYGIGFGPFIITNKHLFRRNNGTLVVQSLHGVFKVKDTTTLQQHLVDGRDMIIIRMPKDFPPFPWKLKFREPQREERICLVTTNFQTKSMSSMVSDTSCTFPSGDGIFWKHWIQTKDGQCGSPLVSTRDGFIVGIHSASNFTNTNNYFTSVPKNFMELLTNQEAQQWVSGWRLNADSVLWGGHKVFMVKPEEPFQPVKEATQL", "note": "[Q97W]", "area with substrate ECLYFQS": 0.1, "area with substrate EELYFQS": 0.113, "area with substrate EKLYFQS": 0.142, "area with substrate EQLYFQS": 0.107, "area with substrate ERLYFQS": 0.0962}
{"variant": "MGESLFKGPRDYNPISSSICHLTNESDGHTTSLYGIGFGPFIITNKHLFRRNNGTLVVQSLHGVFKVKDTTTLQQHLVDGRDMIIIRMPKDFPPFPYKLKFREPQREERICLVTTNFQTKSMSSMVSDTSCTFPSGDGIFWKHWIQTKDGQCGSPLVSTRDGFIVGIHSASNFTNTNNYFTSVPKNFMELLTNQEAQQWVSGWRLNADSVLWGGHKVFMVKPEEPFQPVKEATQL", "note": "[Q97Y]", "area with substrate ECLYFQS": 0.0825}
{"variant": "MGESLFKGPRDYNPISSSICHLTNESDGHTTSLYGIGFGPFIITNKHLFRRNNGTLVVQSLHGVFKVKDTTTLQQHLVDGRDMIIIRMPKDFPPFPQRLKFREPQREERICLVTTNFQTKSMSSMVSDTSCTFPSGDGIFWKHWIQTKDGQCGSPLVSTRDGFIVGIHSASNFTNTNNYFTSVPKNFMELLTNQEAQQWVSGWRLNADSVLWGGHKVFMVKPEEPFQPVKEATQL", "note": "[K98R]", "area with substrate ECLYFQS": 0.0994, "area with substrate EHLYFQS": 0.139, "area with substrate EILYFQS": 0.107, "area with substrate EKLYFQS": 0.114, "area with substrate EMLYFQS": 0.112, "area with substrate EPLYFQS": 0.113, "area with substrate EQLYFQS": 0.0982, "area with substrate ERLYFQS": 0.101, "area with substrate ESLYFQS": 0.106, "area with substrate EVLYFQS": 0.0973, "area with substrate EWLYFQS": 0.109}
{"variant": "MGESLFKGPRDYNPISSSICHLTNESDGHTTSLYGIGFGPFIITNKHLFRRNNGTLVVQSLHGVFKVKDTTTLQQHLVDGRDMIIIRMPKDFPPFPQVLKFREPQREERICLVTTNFQTKSMSSMVSDTSCTFPSGDGIFWKHWIQTKDGQCGSPLVSTRDGFIVGIHSASNFTNTNNYFTSVPKNFMELLTNQEAQQWVSGWRLNADSVLWGGHKVFMVKPEEPFQPVKEATQL", "note": "[K98V]", "area with substrate ECLYFQS": 0.126, "area with substrate EELYFQS": 0.112, "area with substrate EKLYFQS": 0.104, "area with substrate EMLYFQS": 0.132, "area with substrate ERLYFQS": 0.139}
